Measured values reported in paper PMC12820563.
The other results are listed elsewhere or left out. The list includes weakly bound sequences.

Molecular target: T1, MBP-FoxP3dN (UniProt Q99JB6)
T1 sequence: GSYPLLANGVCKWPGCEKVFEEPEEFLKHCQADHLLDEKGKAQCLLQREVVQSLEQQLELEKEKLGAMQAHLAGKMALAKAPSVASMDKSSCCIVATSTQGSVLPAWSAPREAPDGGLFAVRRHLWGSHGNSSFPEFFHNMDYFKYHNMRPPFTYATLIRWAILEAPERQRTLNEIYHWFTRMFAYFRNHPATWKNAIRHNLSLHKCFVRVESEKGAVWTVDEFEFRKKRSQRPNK
Test: PD-seq (MBP pull-down with sequencing)
Conditions: 20 mM Tris-HCl pH 7.5, 100 mM NaCl, 1.5 mM MgCl2, 0.4 uM protein, 0.1 uM dsDNA library, 30 min, room temperature, amylose pull-down; high values mean tight binding; double strand, one strand shown

| Sequence | binding signal (RPM ratio (pull-down/input)) |
| --- | --- |
| GATGATTGTTCTCCCAGCTGATGAATTGCACACATCGAGTAAACAAATTTTCCTAATCTTTCTGTTCAAGCGCCATCTAC | 1.05 |
| GATGATTGTTCTCCCAGCTGATGAATTAGCTACGTCGAGTAAACAAATTTTCCTAATCTTTCTGTTCAAGCGCCATCTAC | 0.458 |
| GATGATTGTTCTCCCAGCTGATGAATTACTGCTCTCGAGTAAACAAATTTTCCTAATCTTTCTGTTCAAGCGCCATCTAC | 0.405 |
| GATGATTGTTCTCCCAGCTGATGAATTACCGATGTCGAGTAAACAAATTTTCCTAATCTTTCTGTTCAAGCGCCATCTAC | 0.442 |
| GATGATTGTTCTCCCAGCTGATGAATTCTATGCCTCGAGTAAACAAATTTTCCTAATCTTTCTGTTCAAGCGCCATCTAC | 0.668 |
| GATGATTGTTCTCCCAGCTGATGAATTGTGGGTCTCGAGTAAACAAATTTTCCTAATCTTTCTGTTCAAGCGCCATCTAC | 1.25 |
| GATGATTGTTCTCCCAGCTGATGAATTGCTAGAGTCGAGTAAACAAATTTTCCTAATCTTTCTGTTCAAGCGCCATCTAC | 0.44 |
| GATGATTGTTCTCCCAGCTGATGAATTCCTGTTGTCGAGTAAACAAATTTTCCTAATCTTTCTGTTCAAGCGCCATCTAC | 1.27 |
| GATGATTGTTCTCCCAGCTGATGAATTTGAATGTTCGAGTAAACAAATTTTCCTAATCTTTCTGTTCAAGCGCCATCTAC | 1.46 |
| GATGATTGTTCTCCCAGCTGATGAATTCGCCGTATCGAGTAAACAAATTTTCCTAATCTTTCTGTTCAAGCGCCATCTAC | 0.592 |
| GATGATTGTTCTCCCAGCTGATGAATTTGTCCCATCGAGTAAACAAATTTTCCTAATCTTTCTGTTCAAGCGCCATCTAC | 2.38 |
| GATGATTGTTCTCCCAGCTGATGAATTAATCACGTCGAGTAAACAAATTTTCCTAATCTTTCTGTTCAAGCGCCATCTAC | 0.577 |
| GATGATTGTTCTCCCAGCTGATGAATTGTAATATTCGAGTAAACAAATTTTCCTAATCTTTCTGTTCAAGCGCCATCTAC | 1.5 |
| GATGATTGTTCTCCCAGCTGATGAATTCCTTCTATCGAGTAAACAAATTTTCCTAATCTTTCTGTTCAAGCGCCATCTAC | 0.281 |
| GATGATTGTTCTCCCAGCTGATGAATTGTTCTAGTCGAGTAAACAAATTTTCCTAATCTTTCTGTTCAAGCGCCATCTAC | 0.321 |
| GATGATTGTTCTCCCAGCTGATGAATTGTGCAGGTCGAGTAAACAAATTTTCCTAATCTTTCTGTTCAAGCGCCATCTAC | 1.71 |
| GATGATTGTTCTCCCAGCTGATGAATTCAAATCTTCGAGTAAACAAATTTTCCTAATCTTTCTGTTCAAGCGCCATCTAC | 0.237 |
| GATGATTGTTCTCCCAGCTGATGAATTGCTATGATCGAGTAAACAAATTTTCCTAATCTTTCTGTTCAAGCGCCATCTAC | 0.879 |
| GATGATTGTTCTCCCAGCTGATGAATTAATTCTCTCGAGTAAACAAATTTTCCTAATCTTTCTGTTCAAGCGCCATCTAC | 0.307 |
| GATGATTGTTCTCCCAGCTGATGAATTTGTGATCTCGAGTAAACAAATTTTCCTAATCTTTCTGTTCAAGCGCCATCTAC | 4.83 |
| GATGATTGTTCTCCCAGCTGATGAATTCTGCACGTCGAGTAAACAAATTTTCCTAATCTTTCTGTTCAAGCGCCATCTAC | 2.7 |

| Sequence | binding signal (RPM ratio (pull-down/input)) |
| --- | --- |
| GATGATTGTTCTCCCAGCTGATGAATTCAAAATGTCGAGTAAACAAATTTTCCTAATCTTTCTGTTCAAGCGCCATCTAC | 0.316 |
| GATGATTGTTCTCCCAGCTGATGAATTCATTCACTCGAGTAAACAAATTTTCCTAATCTTTCTGTTCAAGCGCCATCTAC | 0.354 |
| GATGATTGTTCTCCCAGCTGATGAATTTGATGGGTCGAGTAAACAAATTTTCCTAATCTTTCTGTTCAAGCGCCATCTAC | 3.22 |
| GATGATTGTTCTCCCAGCTGATGAATTACGTGTCTCGAGTAAACAAATTTTCCTAATCTTTCTGTTCAAGCGCCATCTAC | 1.3 |
| GATGATTGTTCTCCCAGCTGATGAATTGTATTGTTCGAGTAAACAAATTTTCCTAATCTTTCTGTTCAAGCGCCATCTAC | 6.04 |
| GATGATTGTTCTCCCAGCTGATGAATTTCTACAATCGAGTAAACAAATTTTCCTAATCTTTCTGTTCAAGCGCCATCTAC | 0.363 |
| GATGATTGTTCTCCCAGCTGATGAATTGTTGGCTTCGAGTAAACAAATTTTCCTAATCTTTCTGTTCAAGCGCCATCTAC | 2.27 |
| GATGATTGTTCTCCCAGCTGATGAATTTCGGAGATCGAGTAAACAAATTTTCCTAATCTTTCTGTTCAAGCGCCATCTAC | 0.228 |
| GATGATTGTTCTCCCAGCTGATGAATTGCATGTCTCGAGTAAACAAATTTTCCTAATCTTTCTGTTCAAGCGCCATCTAC | 1.91 |
| GATGATTGTTCTCCCAGCTGATGAATTCAATTCTTCGAGTAAACAAATTTTCCTAATCTTTCTGTTCAAGCGCCATCTAC | 0.609 |
| GATGATTGTTCTCCCAGCTGATGAATTTTTGGGCTCGAGTAAACAAATTTTCCTAATCTTTCTGTTCAAGCGCCATCTAC | 0.259 |
| GATGATTGTTCTCCCAGCTGATGAATTCGAGTATTCGAGTAAACAAATTTTCCTAATCTTTCTGTTCAAGCGCCATCTAC | 0.977 |
| GATGATTGTTCTCCCAGCTGATGAATTTGAGTGCTCGAGTAAACAAATTTTCCTAATCTTTCTGTTCAAGCGCCATCTAC | 0.987 |
| GATGATTGTTCTCCCAGCTGATGAATTTTTCTCATCGAGTAAACAAATTTTCCTAATCTTTCTGTTCAAGCGCCATCTAC | 0.274 |
| GATGATTGTTCTCCCAGCTGATGAATTTTGCCGCTCGAGTAAACAAATTTTCCTAATCTTTCTGTTCAAGCGCCATCTAC | 2.85 |
| GATGATTGTTCTCCCAGCTGATGAATTCCACCTTTCGAGTAAACAAATTTTCCTAATCTTTCTGTTCAAGCGCCATCTAC | 0.35 |
| GATGATTGTTCTCCCAGCTGATGAATTGCTGCAATCGAGTAAACAAATTTTCCTAATCTTTCTGTTCAAGCGCCATCTAC | 3.27 |
| GATGATTGTTCTCCCAGCTGATGAATTTGCCAAGTCGAGTAAACAAATTTTCCTAATCTTTCTGTTCAAGCGCCATCTAC | 0.252 |
| GATGATTGTTCTCCCAGCTGATGAATTGTTAGTGTCGAGTAAACAAATTTTCCTAATCTTTCTGTTCAAGCGCCATCTAC | 4.19 |
| GATGATTGTTCTCCCAGCTGATGAATTTTTCGTCTCGAGTAAACAAATTTTCCTAATCTTTCTGTTCAAGCGCCATCTAC | 0.258 |
| GATGATTGTTCTCCCAGCTGATGAATTCCCTTAGTCGAGTAAACAAATTTTCCTAATCTTTCTGTTCAAGCGCCATCTAC | 0.242 |

| Sequence | binding signal (RPM ratio (pull-down/input)) |
| --- | --- |
| GATGATTGTTCTCCCAGCTGATGAATTTAATGCCTCGAGTAAACAAATTTTCCTAATCTTTCTGTTCAAGCGCCATCTAC | 1.91 |
| GATGATTGTTCTCCCAGCTGATGAATTCGATGAATCGAGTAAACAAATTTTCCTAATCTTTCTGTTCAAGCGCCATCTAC | 0.288 |
| GATGATTGTTCTCCCAGCTGATGAATTGCGCAAGTCGAGTAAACAAATTTTCCTAATCTTTCTGTTCAAGCGCCATCTAC | 2.55 |
| GATGATTGTTCTCCCAGCTGATGAATTCCACGGTTCGAGTAAACAAATTTTCCTAATCTTTCTGTTCAAGCGCCATCTAC | 0.336 |
| GATGATTGTTCTCCCAGCTGATGAATTCGGTGCTTCGAGTAAACAAATTTTCCTAATCTTTCTGTTCAAGCGCCATCTAC | 0.937 |
| GATGATTGTTCTCCCAGCTGATGAATTTGGCCACTCGAGTAAACAAATTTTCCTAATCTTTCTGTTCAAGCGCCATCTAC | 5 |
| GATGATTGTTCTCCCAGCTGATGAATTCGTCATCTCGAGTAAACAAATTTTCCTAATCTTTCTGTTCAAGCGCCATCTAC | 2.04 |
| GATGATTGTTCTCCCAGCTGATGAATTCCCCTAATCGAGTAAACAAATTTTCCTAATCTTTCTGTTCAAGCGCCATCTAC | 0.224 |
| GATGATTGTTCTCCCAGCTGATGAATTGGCGAGGTCGAGTAAACAAATTTTCCTAATCTTTCTGTTCAAGCGCCATCTAC | 0.318 |
| GATGATTGTTCTCCCAGCTGATGAATTACCCAAGTCGAGTAAACAAATTTTCCTAATCTTTCTGTTCAAGCGCCATCTAC | 0.186 |
| GATGATTGTTCTCCCAGCTGATGAATTGCCGCTATCGAGTAAACAAATTTTCCTAATCTTTCTGTTCAAGCGCCATCTAC | 1.25 |
| GATGATTGTTCTCCCAGCTGATGAATTCGACACTTCGAGTAAACAAATTTTCCTAATCTTTCTGTTCAAGCGCCATCTAC | 0.849 |
| GATGATTGTTCTCCCAGCTGATGAATTATTCGTGTCGAGTAAACAAATTTTCCTAATCTTTCTGTTCAAGCGCCATCTAC | 0.459 |
| GATGATTGTTCTCCCAGCTGATGAATTAATTCCCTCGAGTAAACAAATTTTCCTAATCTTTCTGTTCAAGCGCCATCTAC | 0.337 |
| GATGATTGTTCTCCCAGCTGATGAATTGCCATGATCGAGTAAACAAATTTTCCTAATCTTTCTGTTCAAGCGCCATCTAC | 0.713 |
| GATGATTGTTCTCCCAGCTGATGAATTGGCGCCGTCGAGTAAACAAATTTTCCTAATCTTTCTGTTCAAGCGCCATCTAC | 0.601 |
| GATGATTGTTCTCCCAGCTGATGAATTAGCCCATTCGAGTAAACAAATTTTCCTAATCTTTCTGTTCAAGCGCCATCTAC | 0.4 |
| GATGATTGTTCTCCCAGCTGATGAATTAAATTGATCGAGTAAACAAATTTTCCTAATCTTTCTGTTCAAGCGCCATCTAC | 0.875 |
| GATGATTGTTCTCCCAGCTGATGAATTACGTAAGTCGAGTAAACAAATTTTCCTAATCTTTCTGTTCAAGCGCCATCTAC | 0.424 |
| GATGATTGTTCTCCCAGCTGATGAATTTGCTAAGTCGAGTAAACAAATTTTCCTAATCTTTCTGTTCAAGCGCCATCTAC | 0.407 |
| GATGATTGTTCTCCCAGCTGATGAATTTTGAGTATCGAGTAAACAAATTTTCCTAATCTTTCTGTTCAAGCGCCATCTAC | 1.01 |
